Reference: US12344663B2, “Anti-C3 antibodies and antigen-binding fragments thereof and their uses for treating eye or ocular diseases” (CDR-Life AG, priority 2021, dated 2025)

Test: In vitro BrM permeation assay, Ussing chamber
Type: in vitro ADME, porcine
Conditions: 0.1 mg/ml, up to 72 h, in words
Protocol: Porcine Bruch's membrane samples are used for this measurement. Porcine eyes are collected from the slaughterhouse) no more than 6 hours after the animals were sacrificed and stored at 4° C. until use (on same day).
Preparation of enriched Bruch's Membrane (BrM): The eyes are placed into a disposable petri-dish and any residual tissue surrounding the eyeball is removed. The eyeball is incised next to the iris with a scalpel and the front part of the eye as well as lens, vitreous and retinal tissue are removed from the eyecup. […]
Sampling and membrane integrity analysis: For sampling at different timepoints (4 h, 24 h, 48 h and 72 h) the solution in the single compartments is mixed by carefully pipetting up and down and 90 μl were transferred separately from each sample and diffusate chamber to collection tubes. […] Accumulation of blue particles in the second compartment is observed and camera pictures are recorded to control for overall membrane integrity.
Sample analysis: 15 μl of each solution from the sample and diffusate chambers are effectively loaded on 2 precast polyacrylamide gels (NuPAGE Bis-Tris gels) together with a similar amount of stored mastermix as loading control. The first gel is analyzed by standard SDS-PAGE and Coomassie-based staining methods for protein detection (anti-C3 scFv). […]
Evaluation: Pictures of the SDS-gels are analyzed using ImageJ2 software (Fiji). […]

B1: Compound A3: NGM621 surrogate, anti-C3 IgG, HC SEQ ID NO: 53, LC SEQ ID NO: 54 (antibody)
heavy: QVQLVQSGAEVKKPGASVKVSCKASGYTFTDFYMDWVRQAPGQRLEWMGYIYPHNGGTTYNQQFTGRVTITVDKSASTAYMELSSLRSEDTAVYYCARRGGFDFDYWGQGTLVTVSS[letters of human IgG1 constant region left out]
light: DIQMTQSPSSLSASVGDRVTITCKASENVDTYVSWYQQKPGKAPKLLIYGASNRYTGVPSRFSGSGSGTDFTFTISSLQPEDIATYHCGQSHSYPLTFGQGTKLEIKRTVAAPSVFIFPPSDEQLKSGTASVVCLLNNFYPREAKVQWKVDNALQSGNSQESVTEQDSKDSTYSLSSTLTLSKADYEKHKVYACEVTHQGLSSPVTKSFNRGEC
modifications: Compound C3 - HC; Compound C3 - LC
Diffusion/penetration through porcine Bruch's membrane: Reduced penetration
